Source: the supplement of paper PMC3334620
Whole data set: some 33,000 sequences, median “E-score (-0.5 to 0.5)” near -0.041, cut for the highest 2% near 0.37. Some of the results follow.

Each sequence was assayed against T1, Ecm22 (UniProt Q05958) (assay: PBM E-score (8-mer binding enrichment) (E-score (-0.5 to 0.5)); higher = stronger / more preferred TF binding; most listed sequences are background and not binding sites). Conditions: protein concentration: 200 nM; construct: GST-full length.
T1 sequence: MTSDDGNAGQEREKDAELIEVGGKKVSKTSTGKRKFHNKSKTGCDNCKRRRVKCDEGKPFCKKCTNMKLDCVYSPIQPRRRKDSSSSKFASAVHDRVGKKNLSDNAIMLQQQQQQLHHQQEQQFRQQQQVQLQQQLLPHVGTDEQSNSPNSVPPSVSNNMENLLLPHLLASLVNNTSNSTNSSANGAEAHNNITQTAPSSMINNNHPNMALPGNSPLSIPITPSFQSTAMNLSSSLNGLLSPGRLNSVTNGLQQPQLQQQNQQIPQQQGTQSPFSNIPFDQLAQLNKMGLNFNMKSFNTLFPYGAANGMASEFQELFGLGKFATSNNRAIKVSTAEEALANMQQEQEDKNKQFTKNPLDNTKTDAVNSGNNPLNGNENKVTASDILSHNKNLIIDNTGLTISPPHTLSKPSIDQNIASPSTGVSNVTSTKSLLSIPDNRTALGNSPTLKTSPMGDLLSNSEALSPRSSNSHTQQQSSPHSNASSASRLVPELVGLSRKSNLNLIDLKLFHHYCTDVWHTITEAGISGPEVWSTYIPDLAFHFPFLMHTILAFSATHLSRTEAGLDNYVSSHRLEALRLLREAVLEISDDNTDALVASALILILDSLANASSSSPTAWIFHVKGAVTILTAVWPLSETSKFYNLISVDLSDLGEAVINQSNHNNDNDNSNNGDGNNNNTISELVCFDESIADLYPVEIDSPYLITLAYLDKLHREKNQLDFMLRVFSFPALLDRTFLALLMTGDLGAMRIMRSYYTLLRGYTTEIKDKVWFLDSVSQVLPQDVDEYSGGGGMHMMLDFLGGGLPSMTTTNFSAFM
Procedure, shortened: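 Detection of bound protein used fluorescent anti-GST, with scans normalised by masliner. The proteins were GST-tagged yeast transcription factors applied at about 100-200 nM to universal all-10-mer Agilent arrays made double-stranded by primer extension. Each ungapped eight-base word, pooled with its reverse complement, was scored with an E-score from the Universal PBM Analysis Suite.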

Row | Sequence | PBM E-score
1 | CACACACC | -0.0532
2 | CTCTCTCA | -0.283
3 | CATCTCAC | -0.0428
4 | ACATCGTG | 0.0443
5 | AAGGATTG | -0.186
6 | AGCACCAA | -0.248
7 | AAGTTTGT | -0.176
8 | CCATCCGC | 0.111
9 | CCCGTAAA | 0.32
10 | CATATTAG | 0.0639
11 | AGGCTCCA | -0.369
12 | GTATGTAA | 0.209
13 | GACCGGTC | -0.0983
14 | GACCTTCC | -0.106
15 | ACACGGAC | 0.0435
16 | CACAATTA | 0.117
17 | ATTCCTGG | -0.248
18 | GCGGCCAA | -0.0853

Row | Sequence | PBM E-score
19 | GAAGGGGA | -0.285
20 | ATTACTAG | -0.234
21 | ACATGGGA | -0.0526
22 | GGCTTGTA | -0.0785
23 | GTAATCAC | 0.0227
24 | AGCGCACA | -0.0159
25 | CCGATCAG | 0.089
26 | TACCCAGA | 0.0597
27 | CACGCGTG | -0.0524
28 | ATCGGGAA | 0.086
29 | CGTAGTTA | 0.191
30 | AACCGTAC | 0.36
31 | CCCCGTTC | 0.344
32 | ACGTTAAT | 0.173
33 | CACCGAAC | -0.0353
34 | GATAAGCC | -0.17
35 | ACCCACCG | -0.0166
36 | CCGCTCCA | 0.121
